This is one part of the list.
What was measured:
Assay in all cases: glycan array binding signal (z-score within array); higher = stronger binding
Details in all cases: glycan notation: IUPAC condensed, linker removed
[1] = biological target: Gal(b1-3)[Neu5Ac(b2-6)]GlcNAc
How it was run: (§1)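 Glycan array data were curated from 3228 arrays in the Consortium for Functional Glycomics database and kept only where the protein sequence was available. Glycan names were converted to IUPAC-condensed notation, and columns mapping to the same glycan were averaged. The binding signal is a within-array Z-score, averaged across arrays of the same protein sequence at different concentrations or buffers and across linkers. Negative Z-scores can be read as non-binding.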

[2] = biological target: Gal(b1-4)GalNAc(a1-3)[Fuc(a1-2)]Gal(b1-4)GlcNAc
How it was run: as §1

[3] = biological target: Gal(b1-4)GalNAc(b1-3)[Fuc(a1-2)]Gal(b1-4)GlcNAc
How it was run: as §1

Gal(b1-4)Glc = biological target: Gal(b1-4)Glc
How it was run: as §1

Gal(b1-4)Glc6S = biological target: Gal(b1-4)Glc6S
How it was run: as §1

Gal(b1-4)GlcNAc = biological target: Gal(b1-4)GlcNAc
How it was run: as §1

[4] = biological target: Gal(b1-4)GlcNAc(b1-2)Man(a1-3)[Gal(b1-4)GlcNAc(b1-2)Man(a1-6)]Man(b1-4)GlcNAc(b1-4)GlcNAc
How it was run: as §1

[5] = biological target: Gal(b1-4)GlcNAc(b1-3)Gal(b1-3)GlcNAc
How it was run: as §1

[6] = biological target: Gal(b1-4)GlcNAc(b1-3)Gal(b1-4)Glc
How it was run: as §1

[7] = biological target: Gal(b1-4)GlcNAc(b1-3)Gal(b1-4)GlcNAc
How it was run: as §1

[8] = biological target: Gal(b1-4)GlcNAc(b1-3)Gal(b1-4)GlcNAc(b1-3)Gal(b1-4)GlcNAc
How it was run: as §1

[9] = biological target: Gal(b1-4)GlcNAc(b1-3)Gal(b1-4)[Fuc(a1-3)]GlcNAc(b1-3)Gal(b1-4)[Fuc(a1-3)]GlcNAc
How it was run: as §1

[10] = biological target: Gal(b1-4)GlcNAc(b1-3)GalNAc
How it was run: as §1

[11] = biological target: Gal(b1-4)GlcNAc(b1-3)[Gal(b1-4)GlcNAc(b1-6)]GalNAc
How it was run: as §1

[12] = biological target: Gal(b1-4)GlcNAc(b1-6)GalNAc
How it was run: as §1

[13] = biological target: Gal(b1-4)GlcNAc(b1-6)[Gal(b1-3)]GalNAc
How it was run: as §1

[14] = biological target: Gal(b1-4)GlcNAc(b1-6)[Gal(b1-3)]GlcNAc
How it was run: as §1

Gal3S(b1-3)GalNAc = biological target: Gal3S(b1-3)GalNAc
How it was run: as §1

Gal3S(b1-3)GlcNAc = biological target: Gal3S(b1-3)GlcNAc
How it was run: as §1

[15] = biological target: Gal3S(b1-3)[Fuc(a1-4)]GlcNAc
How it was run: as §1

Gal3S(b1-4)Glc = biological target: Gal3S(b1-4)Glc
How it was run: as §1

Gal3S(b1-4)Glc6S = biological target: Gal3S(b1-4)Glc6S
How it was run: as §1

Gal3S(b1-4)GlcNAc = biological target: Gal3S(b1-4)GlcNAc
How it was run: as §1

Gal3S(b1-4)GlcNAc6S = biological target: Gal3S(b1-4)GlcNAc6S
How it was run: as §1

Gal3S6S(b1-4)GlcNAc = biological target: Gal3S6S(b1-4)GlcNAc
How it was run: as §1

Gal3S6S(b1-4)GlcNAc6S = biological target: Gal3S6S(b1-4)GlcNAc6S
How it was run: as §1

Gal4S(b1-4)GlcNAc = biological target: Gal4S(b1-4)GlcNAc
How it was run: as §1

Gal4S6S(b1-4)GlcNAc = biological target: Gal4S6S(b1-4)GlcNAc
How it was run: as §1

Gal6S(b1-4)Glc = biological target: Gal6S(b1-4)Glc
How it was run: as §1

Gal6S(b1-4)Glc6S = biological target: Gal6S(b1-4)Glc6S
How it was run: as §1

Gal6S(b1-4)GlcNAc = biological target: Gal6S(b1-4)GlcNAc
How it was run: as §1

GalNAc(a1-3)Gal = biological target: GalNAc(a1-3)Gal
How it was run: as §1

GalNAc(a1-3)GalNAc = biological target: GalNAc(a1-3)GalNAc
How it was run: as §1

[16] = biological target: GalNAc(b1-3)Gal(a1-4)Gal(b1-4)GlcNAc
How it was run: as §1

GalNAc(b1-3)GalNAc = biological target: GalNAc(b1-3)GalNAc
How it was run: as §1

B1: FBG3 (Homo sapiens), Q9H4M3 (protein)
chain: MAVGNINELPENILLELFTHVPARQLLLNCRLVCSLWRDLIDLVTLWKRKCLREGFITEDWDQPVADWKIFYFLRSLHRNLLHNPCAEEGFEFWSLDVNGGDEWKVEDLSRDQRKEFPNDQVKKYFVTSYYTCLKSQVVDLKAEGYWEELMDTTRPDIEVKDWFAARPDCGSKYQLCVQLLSSAHAPLGTFQPDPATIQQKSDAKWREVSHTFSNYPPGVRYIWFQHGGVDTHYWAGWYGPRVTNSSITIGPPLP
glycan array binding signal (z-score) [1]: -0.544 | glycan array binding signal (z-score) [2]: -0.584 | glycan array binding signal (z-score) [3]: -0.706 | glycan array binding signal (z-score) (Gal(b1-4)Glc): 0.009 | glycan array binding signal (z-score) (Gal(b1-4)Glc6S): 0.065 | glycan array binding signal (z-score) (Gal(b1-4)GlcNAc): 0.126 | glycan array binding signal (z-score) [4]: -0.153 | glycan array binding signal (z-score) [5]: 0.018 | glycan array binding signal (z-score) [6]: -0.463 | glycan array binding signal (z-score) [7]: -0.309 | glycan array binding signal (z-score) [8]: -0.667 | glycan array binding signal (z-score) [9]: -0.293 | glycan array binding signal (z-score) [10]: -0.077 | glycan array binding signal (z-score) [11]: -0.345 | glycan array binding signal (z-score) [12]: 0.02 | glycan array binding signal (z-score) [13]: -0.478 | glycan array binding signal (z-score) [14]: -0.504 | glycan array binding signal (z-score) (Gal3S(b1-3)GalNAc): -0.342 | glycan array binding signal (z-score) (Gal3S(b1-3)GlcNAc): -0.002 | glycan array binding signal (z-score) [15]: 0.313 | glycan array binding signal (z-score) (Gal3S(b1-4)Glc): 0.096 | glycan array binding signal (z-score) (Gal3S(b1-4)Glc6S): 0.876 | glycan array binding signal (z-score) (Gal3S(b1-4)GlcNAc): 0.459 | glycan array binding signal (z-score) (Gal3S(b1-4)GlcNAc6S): 2.99 | glycan array binding signal (z-score) (Gal3S6S(b1-4)GlcNAc): 1.73 | glycan array binding signal (z-score) (Gal3S6S(b1-4)GlcNAc6S): 7.93 | glycan array binding signal (z-score) (Gal4S(b1-4)GlcNAc): -0.079 | glycan array binding signal (z-score) (Gal4S6S(b1-4)GlcNAc): 1.57 | glycan array binding signal (z-score) (Gal6S(b1-4)Glc): 0.072 | glycan array binding signal (z-score) (Gal6S(b1-4)Glc6S): 1.07 | glycan array binding signal (z-score) (Gal6S(b1-4)GlcNAc): 1.02 | glycan array binding signal (z-score) (GalNAc(a1-3)Gal): -0.033 | glycan array binding signal (z-score) (GalNAc(a1-3)GalNAc): -0.456 | glycan array binding signal (z-score) [16]: -0.072 | glycan array binding signal (z-score) (GalNAc(b1-3)GalNAc): 0.557

Source: the supplement of paper PMC8728848
